In PubChem BioAssay AID1479 (National Center for Advancing Translational Sciences (NCATS), 2009):
The whole screen tested about 280,000 compounds, of which about 820 (0.29%) were called active. This list was built around the results that the source calls inconclusive (neither active nor inactive); the mix of calls is not that of the screen. Calls follow the shape of the dose curve; as a rule, active = well fitted curve in either direction with a large enough effect; inconclusive = small, poorly fitted or top-dose-only effect; inactive = flat fitted curve, though single readings scatter. Potencies of inconclusive entries are left out as doubtful fits. Some structures have more than one record in an assay (separate samples or runs), and their calls can disagree.
% is scaled to controls: 0 for no effect and ±100 for the full control effect; potency is read from the fitted curve at half-maximal effect; tags tell the direction and shape of the fitted curve or compound fluorescence and quenching.

Assay: Total Fluorescence Counterscreen for Inhibitors of the Interaction of Thyroid Hormone Receptor and Steroid Receptor Coregulator 2
Settings: TRb/SRC2 Texas Red total fluorescence interference; series mostly up to 106 µM
In short: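 Flags fluorescent or light-absorbing compounds by total fluorescence, S + 2P, at 555 nm excitation and 632 nm emission. Mixture: 20 nM Texas Red SRC2 peptide, 0.6 uM human TRb LBD, 1 uM T3, 5% DMSO; compound exposure 5 h at ambient temperature.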
With `Cc1ccc([N+](=O)[O-])cc1NC(=O)c1ccc(-c2ccccc2)cc1` the Potency was “inactive”. In the case of `C=C1C=C(Br)C2(OCCCO2)[C@H]2OC12` (some centres undefined), the fluorescence change, negative = quenching is reported as inactive: -7.91% [at 11.2 µM]. With `CCn1cc2nc(SCc3cccc(OC)c3)n(Cc3ccc(Cl)cc3)c(=O)c2n1` the Potency was active: 0.0316 µM [quencher]. For `COC(=O)c1cc2sccc2n1Cc1ccccc1`, the Potency was inconclusive [falling, full curve, poor fit]. For `Cc1ccc(C(=O)N2CCc3ccccc32)o1`, the Potency was inconclusive [falling, full curve, poor fit]. In the case of `CC(C)OP(=O)(OC(C)C)/C(C=O)=N\Nc1ccc([N+](=O)[O-])cc1`, the Potency is reported as “inactive”. For `CCc1ccccc1NC(=O)c1cnn2c(C(F)(F)F)cc(-c3ccc(OC)c(OC)c3)nc12`, the Potency was inconclusive [falling, full curve, poor fit]. With `COc1ccc(-c2[nH]ncc2C(=O)NCc2ccc(F)cc2)cc1` the Potency was inconclusive [quencher, full curve]. In the case of `O=C(Nc1ccc2oc(-c3ccc4ccccc4c3)nc2c1)c1cc(Cl)ccc1Cl`, the Potency is reported as inconclusive [rising, single point]. For `COc1ccc(CCNC(=O)c2ccc(Cn3c(SCC(=O)NCCC(C)C)nc4cc5c(cc4c3=O)OCO5)cc2)cc1OC`, the Potency was inconclusive [quencher, full curve]. For `CCCC(=O)Nc1cc(-c2nnc3c4ccccc4c(C)nn23)ccc1C`, the Potency was inconclusive [falling, full curve, poor fit]. For `Cc1cc(C)cc(NC(=O)c2cccc(C(=O)Nc3cc(C)cc(C)c3)c2)c1`, the Potency was inconclusive [falling, full curve, poor fit]. For `C=CCN1C(=O)/C(=C/C=C2/N(CC)c3ccc(S(=O)(=O)N(C)C)cc3N2CC)SC1=S`, the Potency was inconclusive [fluorescent, partial curve]. With `Cc1cc(Nc2ccc(O)cc2)ccc1N` the Potency was “inactive”. In the case of `COc1cc(/C=N/N2C(=O)CSC2=S)cc(Br)c1O`, the Potency is reported as inconclusive [fluorescent, partial curve]. In the case of `CCN(CC)c1ccc2c(Cl)cc(=O)oc2c1`, the Potency is reported as “inactive”. For `CCCCC(=O)OCC(=O)[C@]1(O)Cc2c(O)c3c(c(O)c2[C@H](OC2CC(NC(=O)C(F)(F)F)C(O)C(C)O2)C1)C(=O)c1c(OC)cccc1C3=O` (some centres undefined), the Potency was inconclusive [fluorescent, full curve]. With `O=C(Cn1cc[n+](CC(=O)c2ccc(Cl)cc2Cl)c1)c1ccc(Cl)cc1Cl` the Potency was “inactive”. In the case of `O=C1NN(c2ccccc2)C(=O)/C1=C\c1ccc(-c2cc([N+](=O)[O-])ccc2O)o1`, the Potency is reported as inconclusive [falling, partial curve, poor fit]. With `O=C(NCCS(=O)(=O)N1CCN(c2ccccc2F)CC1)C1CC(=O)N(c2ccc(F)cc2)C1` (centres undefined) the Potency was inconclusive [falling, partial curve, poor fit]. In the case of `CCN1C=C(Cc2ccccc2C)C2=C(C1)C(c1ccccc1C)C(C#N)=C(N)O2` (centres undefined), the Potency is reported as active: 44.7 µM [fluorescent]. For `Cc1cc(C(C)(C)C)cc(C)c1C(=O)O`, the Potency was “inactive”. In the case of `Oc1ccccc1/C=N/N1CCN(c2ccccn2)CC1`, the Potency is reported as “inactive”. For `O=C(Nc1ccc2c(c1)OCO2)c1ccc(N2C(=O)c3ccccc3C2=O)cc1`, the Potency was active: 0.0079 µM [quencher]. In the case of `CCCN(CCC)C(=O)c1nn(C)c2c1CSc1ccccc1-2`, the Potency is reported as inconclusive [rising, single point]. For `COc1ccc(/C=C/C(=O)O)cc1`, the Potency was active: 44.7 µM [fluorescent]. With `CCOc1ccc2nc(N3CCCC(C(=O)NCCc4ccc(C)cc4)C3)sc2c1` (centres undefined) the Potency was inconclusive [quencher, full curve]. For `CC(=O)Nc1ccc(NC(=O)Cn2cc3c(n2)CCCCC3)cc1`, the Potency was “inactive”. With `COc1cccc(CN(C(=O)c2oc3ccc(Br)cc3c2C)C2CCS(=O)(=O)C2)c1` (centres undefined) the Potency was inconclusive [quencher, partial curve]. In the case of `CCN1C(=O)[C@H]2[C@H]3[C@H](O)[C@H](O)C/C(=N/OC[C@@H]4O[C@H](c5ccccc5)C=C[C@@H]4Oc4ccc(OC)cc4)[C@@H]3CC[C@@H]2C1=O`, the Potency is reported as inconclusive [falling, full curve, poor fit]. In the case of `COc1cc(NC(=O)c2ccccc2)c(OC)cc1NC(=O)Cc1cccs1`, the Potency is reported as inconclusive [quencher, partial curve]. With `C/C(N)=C(/C#N)C(=O)COC(=O)c1cc(-c2ccc(Br)cc2)nc2ccccc12` the Potency was active: 22.4 µM [quencher]. For `COc1ccc(N2CCN(S(=O)(=O)c3ccc4c(c3)CCCN4C(C)=O)CC2)cc1`, the Potency was “inactive”. With `O=C(Nc1nnc(S(=O)(=O)N2CCCC2)s1)c1ccccc1Br` the Potency was active: 0.0501 µM [quencher]. With `COC(=O)c1cc(NC(=O)[C@H](CCS(C)(=O)=O)N2Cc3ccccc3C2=O)cc(C(=O)OC)c1` the Potency was inconclusive [quencher, full curve]. For `O=C(OC1CCCCC1)c1ccc2c(c1)C1C=CCC1C(C(=O)O)N2` (centres undefined), the Potency was inconclusive [falling, full curve, poor fit]. With `COc1cc(C2CC(=O)N(Cc3ccc(F)cc3)c3ccccc3S2)cc(OC)c1OC` (centres undefined) the Potency was inconclusive [falling, full curve, poor fit]. In the case of `Cc1ccc(S(=O)(=O)C2(C(=O)Nc3ccc(C)c(Cl)c3)CC2)cc1`, the Potency is reported as inconclusive [falling, full curve, poor fit]. In the case of `COc1ccc(CCNC(=O)/C=C/C(=O)O)cc1OC`, the Potency is reported as “inactive”. With `CC(C)Cn1cc(NC(=O)NCc2ccccc2)c2ccccc2c1=O` the Potency was inconclusive [quencher, full curve]. In the case of `CCCCCCc1c(C)c2c(cc(C)c3c(C)c(C)oc32)oc1=O`, the Potency is reported as inconclusive [falling, partial curve, poor fit]. With `Cc1cc2cc(CNC(=O)c3cc4ccccc4o3)ccc2n1C` the Potency was inconclusive [fluorescent, partial curve]. With `Cc1cc2cc(C(c3nnnn3C(C)(C)C)N(Cc3ccco3)CC3CCCO3)c(=O)[nH]c2cc1C` (centres undefined) the Potency was “inactive”. With `C[C@@]12C=Cc3occc3C1CC[C@@]13C[C@@H](CCC12)[C@@](O)(CO)C3` (some centres undefined) the Potency was inconclusive [quencher, partial curve]. For `CCc1ccc(-c2[nH]c3c(c2-c2c(-n4cccc4)n(C)c(=O)n(C)c2=O)c(=O)n(C)c(=O)n3C)cc1`, the Potency was inconclusive [falling, partial curve, poor fit]. With `Cc1cccc(C2NC(=O)c3c(sc4c3CCN(C)C4)N2)c1O` (centres undefined) the Potency was inconclusive [falling, partial curve, poor fit]. In the case of `COc1ccc(Br)c2c1-c1nc(NC(=O)c3ccccc3SC)sc1C2`, the Potency is reported as inconclusive [falling, full curve, poor fit]. In the case of `CC(Sc1nc(-c2ccccc2)c(C#N)c(=O)[nH]1)C(=O)Nc1ccc(F)cc1` (centres undefined), the Potency is reported as inconclusive [falling, partial curve, poor fit]. For `Cc1ccc(C)c(NC(=O)C(=O)NCC(c2cccnc2)N2CCN(c3ccc(F)cc3)CC2)c1` (centres undefined), the Potency was inconclusive [quencher]. In the case of `COc1ccc(CNC(=O)c2oc3c(c2C)-c2nn(Cc4ccccc4Cl)cc2CC3)cc1`, the Potency is reported as inconclusive [falling, full curve, poor fit]. In the case of `O=C1NC(=S)S/C1=C\c1cc2ccccc2nc1N1CCCCC1`, the Potency is reported as “inactive”. In the case of `CCOc1ccccc1C(=O)N(Cc1ccc(N(C)C)cc1)Cc1ccco1`, the Potency is reported as inconclusive [quencher, partial curve]. In the case of `CCOC(=O)C1(Cc2cccc(OC)c2)CCCN(C(=O)CCc2cccnc2)C1` (centres undefined), the Potency is reported as inconclusive [rising, single point]. In the case of `C=CCN1C(=O)/C(=C\C=C2\N(C)c3ccccc3C2(C)C)SC1=S`, the Potency is reported as inconclusive [falling, full curve, poor fit]. With `CCOC(=O)c1c(C)oc2nc(C)nc(NCCCN3CCN(c4cccc(C)c4)C(C)C3)c12` (centres undefined) the Potency was active: 44.7 µM [quencher]. With `Cc1cccc(NC(=O)c2c(Br)sc3c2CCCC3)c1` the Potency was inconclusive [quencher, full curve]. With `N#Cc1ccc(OCC(=O)OCC(=O)Nc2cc(C(F)(F)F)ccc2N2CCOCC2)cc1` the Potency was inconclusive [quencher, partial curve]. With `COc1ccc(C2CC(=O)N3CN(C4CCCCC4)CSC3=C2C#N)cc1` (centres undefined) the Potency was “inactive”. In the case of `Cc1ccc(SCC(=O)Nc2ccc3oc(-c4cccc(C)c4)nc3c2)cc1`, the Potency is reported as inconclusive [quencher, partial curve]. With `Cc1ccc(Cl)cc1NC(=O)CCS(=O)(=O)c1ccc(Br)s1` the Potency was inconclusive [falling, full curve, poor fit]. With `Cc1ccc(-c2nc3c4cnn(-c5cc(Cl)ccc5Cl)c4ncn3n2)cc1` the Potency was inconclusive [falling, full curve, poor fit]. In the case of `COc1cccc(CNC(=O)C(=O)NCC(c2ccco2)N2CCOCC2)c1` (centres undefined), the Potency is reported as inconclusive [falling, partial curve, poor fit]. With `COc1ccc(N2C(=O)/C(=C/c3cccs3)NC2=S)cc1` the Potency was “inactive”. For `COc1ccc(-c2cccc(NS(=O)(=O)c3cc(C)c(Cl)cc3C)c2)nn1`, the Potency was inconclusive [falling, partial curve, poor fit].
